Results: the supplement of paper PMC9334596
“And” between values parts separate entries of the source, which are not always exact repeats. Equal entries are not always repeated. In all, about 5,300 compounds were measured (“PER2::LUC luminescence relative to vehicle control”: median about 0.96, highest 2% from about 1.3 on). The list shows a part of the results.

System: mPer2Luc MEF
Assay: PER2::LUC luminescence relative to vehicle control (fold of vehicle); higher = higher PER2::LUC reporter signal
Details: 10 µM
In short: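 Each value gives PER2::LUC luminescence as fold of vehicle control, measured with the ONE-Glo luciferase assay system in mouse embryonic fibroblasts carrying the mPer2Luc reporter. Cells grown in DMEM with 10% FBS at 37 °C and 5% CO2 were seeded at ~3000 per well in 384-well plates. Library compounds were added at 10 μM 48 h later, and readings were taken 24 h and 30 h after treatment.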

Structure (SMILES)	PER2::LUC luminescence (time after treatment 24 h)	PER2::LUC luminescence (time after treatment 30 h)
COc1ccc(-c2cc(=O)c3c(OC(C)=O)cc(OC(C)=O)cc3o2)cc1	1.25	1.3
Cc1cc(-c2ccccc2)nnc1NCCN1CCOCC1	0.994 and 0.982	1.01 and 0.929
NC(N)=Nc1nc(CSCC/C(N)=N/S(N)(=O)=O)cs1	1.03	1.04
Cc1cc(C=C2SC(=O)N(c3ccccc3)C2=O)c(C)n1-c1cccnc1	0.124	0.131
C=CCO/N=C1\c2ccccc2-c2nc(C#N)c(C#N)nc21	0.778	0.699
CCN1CCN(Cc2ccc(-c3cc4c(N[C@H](C)c5ccccc5)ncnc4[nH]3)cc2)CC1	0.438	0.373
CCOC(=O)c1c(CSc2ccccc2)n(C)c2cc(Br)c(O)c(CN(C)C)c12	0.867	0.79
CON	1.02	0.914
COc1cc(N2CCC(N3CCN(C)CC3)CC2)ccc1Nc1ncnc(Nc2ccccc2S(=O)(=O)C(C)C)n1	0.431	0.437
CCN(CCO)CCCC(C)Nc1ccnc2cc(Cl)ccc12 (stereo unspecified)	0.753	0.699
Cc1nc(Nc2ncc(C(=O)Nc3c(C)cccc3Cl)s2)cc(N2CCN(CCO)CC2)n1	0.152 and 0.068	0.201 and 0.083
CC(/C=C/C(=O)NO)=C\[C@@H](C)C(=O)c1ccc(N(C)C)cc1	0.507	0.351
O=C(NC1CCN(Cc2ccccc2)CC1)c1ccc(I)cc1	0.949	0.984
CC(C)c1ccc2c(c1)c(SC(C)(C)C)c(CC(C)(C)C(=O)O)n2Cc1ccc(Cl)cc1	1.15 and 0.968	0.932 and 0.989
O=C1C=CC(=O)C2=C1C1c3ccccc3C2c2ccccc21	1.1	1.11
Cc1ccccc1-n1c([C@H](C)Nc2nc(N)nc3nc[nH]c23)nc2cccc(C)c2c1=O	0.801	0.66
C[C@@H](O)[C@H]1C(=O)N2C(C(=O)[O-])=C(SC3Cn4cnc[n+]4C3)[C@H](C)[C@H]12 (stereo partly specified)	1.09	1.08
C[C@@H]1CCNC(=O)c2cc3ccc(C(=O)Nc4nc5ccccc5n4CCCN(C)C)cc3n21	0.548	0.586
O=c1ccn([C@@H]2O[C@H](COP(=O)(O)OP(=O)(O)OP(=O)(O)O)[C@@H](O)[C@H]2O)c(=O)[nH]1	1.08	1.06
COc1cc(O)c2c(=O)cc(-c3ccc(O)cc3)oc2c1	1.21	1.32
CC(C(=O)O)c1ccc2c(c1)CC(=O)c1ccccc1S2 (stereo unspecified)	1.05	1.08
COc1ccc(CC2c3cc(OC)c(OC)cc3CC[N+]2(C)CCC(=O)OCCCCCOC(=O)CC[N+]2(C)CCc3cc(OC)c(OC)cc3C2Cc2ccc(OC)c(OC)c2)cc1OC (stereo unspecified)	0.845	0.818
CC(=O)[C@H]1CC[C@H]2[C@@H]3CC=C4C[C@@H](O)CC[C@]4(C)[C@H]3CC[C@]12C	0.912	0.896
NS(=O)(=O)c1ccc(-c2c(-c3ccccc3)noc2C(F)F)cc1	1.04	1

Structure (SMILES)	PER2::LUC luminescence (time after treatment 24 h)	PER2::LUC luminescence (time after treatment 30 h)
O=c1c(-c2cc(O)c(O)c(O)c2)coc2cc(O)c(O)c(O)c12	0.977	0.832
Cc1ccc2c(=O)c3cccc(CC(=O)O)c3oc2c1C	0.965	1.06
CC[C@@H](C(=O)[C@@H](C)[C@@H](O)[C@H](C)CCc1ccc(C)c(O)c1C(=O)O)[C@H]1O[C@](CC)([C@H]2CC[C@](O)(CC)[C@H](C)O2)C[C@@H]1C	0.343	0.294
C=C1/C(=C\C=C2/CCC[C@]3(C)[C@@H]([C@H](C)/C=C/[C@H](C)C(C)C)CC[C@@H]23)C[C@@H](O)C[C@@H]1O	1.04 and 1.06	1.06 and 0.986
N[C@@]1(C(=O)O)CS(=O)(=O)[C@H]2[C@H](C(=O)O)[C@H]21	1.03	1.1
CCOC(=O)C1=C(COCCN)NC(C)=C(C(=O)OC)[C@@H]1c1ccccc1Cl	0.445	0.46
C[C@H]1O[C@@H](Oc2c(-c3cc(O)c(O)c(O)c3)oc3cc(O)cc(O)c3c2=O)[C@@H](O)[C@@H](O)[C@@H]1O	0.947	0.952
CC(COc1ccccc1)NC(C)C(O)c1ccc(O)cc1 (stereo unspecified)	0.789	0.861
Cc1cc(=O)oc2c(O)c(O)ccc12	0.968	0.756
CC1(C)Oc2ncnc(N)c2N=C1c1ccc([C@H]2CC[C@H](CC(=O)O)CC2)cc1	1.09	1.11
CC12CCCC(O)(C1)C1CC(C)(C)C1CC2 (stereo unspecified)	1.01	0.927
CCCCN1CCCCC1C(=O)Nc1c(C)cccc1C (stereo unspecified)	0.526	0.81
CO/N=C1\C[C@]2(C[C@@H]3C[C@@H](C/C=C(\C)C[C@@H](C)/C=C/C=C4\CO[C@@H]5[C@H](O)C(C)=C[C@@H](C(=O)O3)[C@]45O)O2)O[C@H](/C(C)=C/C(C)C)[C@H]1C	1.08	1.12
CCOC(=O)NNc1nncc2ccccc12	0.972	0.87
Cc1oc2nc3c(c(NC(=O)CN4CCCC4=O)c2c1C)CCCC3	1.03	0.893
CCOC(=O)c1[nH]c2cc(Cl)ccc2c1C(C(=O)NC(C)(C)C)N(C=O)Cc1ccc(Cl)cc1 (stereo unspecified)	0.81	0.683
CC1(C)[C@@H](O)CC[C@]2(C)[C@H]3C(=O)C=C4[C@H]5C[C@@](C)(C(=O)O)CC[C@]5(C)CC[C@@]4(C)[C@]3(C)CC[C@@H]12	0.97	0.899
CC(=O)c1c(O)cc(O)cc1O	1.05	1.03
CC(=O)O[C@@H]1CC2C(C)(CC[C@H](O)C2(C)C)C2CC[C@]3(C)C(=CC(=O)O[C@H]3c3ccoc3)C21C (stereo partly specified)	0.798	0.858
CC(=O)N[C@@H](C=O)[C@@H](O)[C@H](O)[C@H](O)CO	0.987	0.909
COC1CCN(C(=O)c2cc(Cc3n[nH]c(=O)c4ccccc34)ccc2F)CC1	1.1	0.955
CO[C@H]1C[C@H](O[C@H]2[C@H](C)[C@@H](O[C@@H]3O[C@H](C)C[C@H](N(C)C)[C@H]3O)[C@@H](C)C[C@@]3(CO3)C(=O)[C@H](C)[C@@H](O)[C@@H](C)[C@@H](C)OC(=O)[C@@H]2C)O[C@@H](C)[C@@H]1O	0.431	0.899
O=C(O)[C@H]1O[C@@H](Oc2cc3oc(-c4ccccc4)cc(=O)c3c(O)c2O)[C@H](O)[C@@H](O)[C@@H]1O	1.22	1.34
CCN1CCC(n2cc(CNc3cc(Cl)c4ncc(C#N)c(Nc5ccc(F)c(Cl)c5)c4c3)nn2)CC1	0.711	0.73
